From ChEMBL document CHEMBL4888484, “Replenishing the malaria drug discovery pipeline: Screening and hit evaluation of the MMV Hit Generation Library 1 (HGL1) against asexual blood stage Plasmodium falciparum ,using a nano luciferase reporter read-out” (2022)
The whole screen tested about 150,000 compounds, of which about 540 (0.36%) showed an effect of 50% or more. The list shows a part of the results.

Each compound was assayed on Plasmodium falciparum (assay: Primary screen in NF54 nanoGlo assay, in single point, at 2uM, 72h; a lower Z score goes with more inhibition). Conditions: timepoint 72 hour.
Type: functional, Erythrocyte

| SMILES | % Inhibition [%] | Z score |
| --- | --- | --- |
| Cc1c(Cl)cccc1NC(=O)Cn1c(=O)n(CCc2cccs2)c(=O)c2ccccc21 | 30 | -3.44 |
| O=C(NC1CC1)[C@H]1O[C@H](CCN2CCN(c3ccccc3)CC2)CC[C@@H]1O | -4 | 0.68 |
| CN1CCCC[C@@H]1CCC(=O)NCCCOC1CCCC1 | 3 | -0.45 |
| COc1ccc(CNc2cccc3c2CCNC3=O)cn1 | -10 | 1.92 |
| Cc1ncc(CN2C[C@H](CO)OC(C)(C)C2)s1 | -7 | 0.93 |
| OC1CCCCC1NC1CCCc2sccc21 (stereo not given) | 1 | -0.13 |
| COc1ccc(OC)c(CNC(=O)C2CCN(c3cnc4nccnc4c3)CC2)c1 | 10 | -1.91 |
| Cc1cc(C)c2oc(-c3cccc(NC(=O)c4ccc5ccccc5c4)c3)nc2c1 | -2 | 0.23 |
| Cc1oncc1C(=O)NCc1cccnc1-c1ccncc1 | -12 | 1.41 |
| O=C(c1cccnc1)N1CC(S(=O)(=O)Nc2ccccc2)C1 | 8 | -1.28 |
| C=C[C@](C)(CCOC)C(=O)N1CCC2(CCCC2)C1 | -10 | 1.88 |
| CN([C@H]1CCc2ccccc21)S(=O)(=O)c1ccc2c(c1)OCCCO2 | 3 | -0.53 |
| CN(Cc1ccc2cc[nH]c2c1)C[C@H]1C[C@@H]1C(=O)O | -16 | 2.23 |
| Cc1ccccc1-c1nc(OC(C)C)nn1-c1cccc(NC(=O)c2ccccc2F)c1 | -12 | 1.95 |
| CC1CCN([C@@H](CNC(=O)c2cccs2)c2cccs2)CC1 | -8 | 0.69 |
| CC(=O)c1ccc(-c2ccc(C(=O)NCc3ccncc3)o2)cc1 | -11 | 1.41 |
| CCCN1C=NS(=O)(=O)c2cc(C(=O)NC3CCCCC3)ccc21 | -10 | 1.64 |
| COc1ccc(NC(=O)[C@H]2CCCN(S(=O)(=O)Cc3ccccc3Cl)C2)c(OC)c1 | -1 | 0.13 |
| Cc1cnc(-c2cccnc2)n1C[C@H]1CCN(C(=O)CC2CCCC2)C1 | -3 | 0.53 |
| c1c[nH]c(-c2ccc(CN3CCCCC3)s2)n1 | 2 | -0.16 |
| O=C1NCCC2(CCN(c3nnnn3CC3=CCCCC3)CC2)O1 | -12 | 2.18 |
| CCc1ccc(C(=O)NCC2CN(C(=O)OC(C)(C)C)CC2O)cc1 (stereo not given) | -7 | 0.95 |

| SMILES | % Inhibition [%] | Z score |
| --- | --- | --- |
| C[C@@H](Cn1cncn1)c1ncnn1C1Cc2ccccc2C1 | 1 | -0.22 |
| CC(C)n1nnnc1-c1ccccc1NS(=O)(=O)N1CCC[C@@H]1C | -7 | 1.34 |
| O=C(c1cc(-c2ccccc2)on1)N1CCCN(C2CCC2)CC1 | -18 | 3.15 |
| CC(C)C(=O)N(Cc1cc(NC(=O)C2CCC2)ccc1N(C)C)CC1CC1 | -8 | 1.16 |
| CC(C)c1cnc(CN2C(=O)C[C@H](Cc3ccc(F)cc3)C2=O)o1 | 3 | -0.34 |
| Cc1nc(C#N)cc(N[C@H](C(N)=O)C(C)C)n1 | -10 | 0.82 |
| Cc1nnc(CN[C@@H](Cc2ccccc2)C2CCCC2)n1C | -15 | 2.73 |
| CCOc1ccc([C@@H]2CC(c3ccc(C)cc3)=NN2C(=O)CN2CCOCC2)cc1 | -5 | 0.87 |
| C[C@H](NC(=O)C1(C)COC1)c1ccn(C)n1 | -10 | 1.18 |
| CCN=C(NCCCOCC1CCCO1)NC(C)CC (stereo not given) | -2 | 0.16 |
| Cn1ncnc1[C@@H](NC(=O)COc1ccc(F)cc1)C1CC1 | -18 | 1.82 |
| Cc1ccnc(NC(=O)Nc2cn[nH]c2)c1 | 1 | -0.12 |
| CCCC(CCC)NC(=O)c1cncn1-c1cccc(-c2cc(Cl)ccc2OC)c1 | 4 | -0.44 |
| COCCN1CC[C@H](CN(C)Cc2ccc(OC)cc2C)C1 | 4 | -0.42 |
| O=C(NCCc1c[nH]cn1)[C@H](c1ccccc1)n1c(=O)[nH]c2ccccc2c1=O | -1 | 0.17 |
| CC(=O)N1CCO[C@@H](CNC(=O)c2ccc(-c3cc(N)ccn3)cc2)C1 | -4 | 0.55 |
| CN1CCC(CN(CCc2ccccc2)C(=O)c2cn3cc(Cl)ccc3n2)CC1 | -19 | 2.8 |
| COc1ccc(-n2nc3c(N4CCCC(C(=O)NCC(C)c5ccccc5)C4)nnc(C)c3c2C)cc1 (stereo not given) | 9 | -1.08 |
| CCN1C(=O)C2(CCN(C(=O)Cc3ccccc3F)CC2)C[C@H]1C(=O)NCCOC | -6 | 0.72 |
| CCc1cnccc1NC(=O)CCCC1CCOCC1 | -3 | 0.38 |
| CN1CC2CC[C@H](CC1=O)N2C(=O)CC1CC1 | -4 | 0.66 |
| Cc1ccccc1C(=O)NCc1nn(C2CCCC2)c2c1COCC2 | 29 | -0.69 |

| SMILES | % Inhibition [%] | Z score |
| --- | --- | --- |
| C[C@@H]1CN(Cc2ccccc2OCC(=O)N2CCCCC2)[C@@H](C)CN1 | -10 | 2.05 |
| CN1C[C@H](CC(=O)N2CCCC2)Oc2ccc(C(=O)N3CCCC3)cc21 | -2 | 0.47 |
| CCC[C@@]1(C)C(=O)NCCN1Cc1ccco1 | 2 | -0.15 |
| O=C(c1cccc(Cl)c1)[C@H]1CCCN(S(=O)(=O)c2ccc(F)c(F)c2)C1 | 2 | -0.44 |
| COc1ccc(C(=O)N2CC[C@](C)(O)[C@H](C)C2)o1 | 1 | -0.27 |
| CC(=O)N[C@@H](CC(C)C)C(=O)N1CCN(Cc2ccc(-c3noc(C4CCCC4)n3)cc2)CC1 | 2 | -0.25 |
| CCN(CC)c1ccc(NC(=O)c2cnn(-c3ccc(=O)[nH]n3)c2C(F)(F)F)cn1 | -16 | 2.66 |
| Cn1ncc2c(N(Cc3cccnc3)C3CC3)ncnc21 | 5 | -0.61 |
| Cc1nnc(CCNC(=O)c2cnc(-c3cccs3)nc2)s1 | -14 | 2.66 |
| Cc1c(CNC[C@H]2CCCCN2C(C)C)cnn1C | -16 | 1.81 |
| CC(C)(C)CNC(=O)C(C)(C)NC(=O)Nc1cccc(C(F)(F)F)c1 | -8 | 1.27 |
| CN(C)C[C@]1(O)CCCN(C(=O)Nc2ccc(Oc3ccccc3)cc2)CC1 | -6 | 0.77 |
| Cc1cccc(NC(=O)Cn2c(=O)n(Cc3ccc(Cl)cc3)c(=O)c3ccccc32)c1C | 4 | -0.63 |
| O=C(NC[C@H]1COCCO1)c1cc(F)c[nH]1 | -11 | 1.42 |
| O=S(=O)(c1cncc(F)c1)N(Cc1ccco1)c1ccccn1 | -11 | 1.05 |
| Cc1nc(CNC(=O)c2coc(C3CC3)n2)no1 | 0 | -0.06 |
| CCn1cc(S(=O)(=O)N2CCC(c3noc(COCCOC)n3)CC2)cn1 | -4 | 0.51 |
| Cc1cc(NC(=O)NCCc2c(C)nn(C)c2C)n(-c2ccccn2)n1 | 1 | -0.08 |
| CC(Cn1cncn1)NC(=O)NC1CN(Cc2ccccc2)CC1C (stereo not given) | -1 | 0.12 |
| CCc1oc(C(=O)N2CCN(c3ccc(C#N)nc3)CC2)cc1C | 0 | 0.05 |
| CCOC(=O)N1CCC(Nc2nc(-c3ccccc3)no2)CC1 | -22 | 1.93 |
| Cc1cc2occ(C(=O)NC[C@]3(O)CCS(=O)(=O)C3)c2cc1C | 6 | -1.21 |

| SMILES | % Inhibition [%] | Z score |
| --- | --- | --- |
| COC[C@]1(C(=O)O)CCCN(C(=O)OC(C)(C)C)CC1 | -8 | 1.55 |
| CCc1cc(C(=O)Nc2ccccc2)c2c(C3CC3)nn(-c3ccccc3)c2n1 | 30 | -3.34 |
| CCOC(=O)C(=O)N1CCN(c2nccc(-c3ccc4c(c3)OCO4)n2)CC1 | -33 | 2.88 |
| CN1CN(c2cccc(C#N)n2)CC1=O | -15 | 1.32 |
| CC(C)Cc1nc([C@@H]2CCCNC2=O)n(CCO)n1 | -7 | 0.98 |
| CCc1cccc(C(=O)NC2CCOC3(CCOC3)C2)c1O (stereo not given) | 4 | -0.6 |
| Cc1noc(C2CCN(CC(=O)N3CCC(C(=O)N(C)C(C)C)CC3)CC2)n1 | 3 | -0.47 |
| Cn1ccc(NC(=O)Cn2ncc(=O)c3ccccc32)n1 | 8 | -1.42 |
| CO[C@H]1CCC12CCN(S(=O)(=O)c1ccc(C)cc1)CC2 | -8 | 1.08 |
| CC[C@H]1COCCN1C(=O)c1cc(CN(CC)CC)oc1-c1ccccc1 | -23 | 2.28 |
| CC(=O)N1CCCN(CC(c2ccccc2)c2ccccc2)CC1 | -2 | 0.26 |
| CC(C)N(C)CC1CCN(C(=O)[C@@H](C(=O)O)C(C)(C)C)CC1 | -6 | 0.99 |
| CC(C)N1CCO[C@@H](CC(=O)NCCn2ccnn2)C1 | -11 | 2.3 |
| COC(=O)c1ccc(-c2nc(CN3C(=O)c4ccccc4C3=O)c(C)o2)cc1 | 2 | -0.31 |
| NC(=O)CN1CCC(NC(=O)C2CCCC(C(F)(F)F)C2)CC1 (stereo not given) | -5 | 0.57 |
| COc1ccc(NC(=O)c2ccc(S(=O)(=O)Nc3ccc(C)c(C)c3)cc2)c(S(=O)(=O)N2CCCCC2)c1 | -11 | 1.46 |
| Nc1nc(CNC(=O)COC[C@H]2CCCCO2)cs1 | 0 | 0.05 |
| CN(C)c1ccccc1NC(=O)Nc1cn[nH]c1 | 5 | -0.53 |
| CN(CCCCc1ccccc1)C(=O)Nc1nncs1 | -7 | 1.25 |
